Measurements reported in publication PMC6451091.
This is one part of the list. Measured with an extract: partners may take part in the binding.

target: T1, FLI1 (endogenous, THP-1 nuclear extract) (UniProt Q01543); assay: nuclear extract protein-binding microarray (nextPBM); details: 20 mM HEPES pH 7.9, 100 mM NaCl, 1 mM DTT, 0.2 mg/mL BSA, 0.02% Triton X-100, 2% milk, 0.4 mg/mL salmon testes DNA; 1 h; temperature not stated; high values mean tight binding; double strand, one strand shown; sequences stand for … in GCCTAGCAC…GTGCTAGGTCTTGATTCGCTTGACGCTGCTG
T1 sequence: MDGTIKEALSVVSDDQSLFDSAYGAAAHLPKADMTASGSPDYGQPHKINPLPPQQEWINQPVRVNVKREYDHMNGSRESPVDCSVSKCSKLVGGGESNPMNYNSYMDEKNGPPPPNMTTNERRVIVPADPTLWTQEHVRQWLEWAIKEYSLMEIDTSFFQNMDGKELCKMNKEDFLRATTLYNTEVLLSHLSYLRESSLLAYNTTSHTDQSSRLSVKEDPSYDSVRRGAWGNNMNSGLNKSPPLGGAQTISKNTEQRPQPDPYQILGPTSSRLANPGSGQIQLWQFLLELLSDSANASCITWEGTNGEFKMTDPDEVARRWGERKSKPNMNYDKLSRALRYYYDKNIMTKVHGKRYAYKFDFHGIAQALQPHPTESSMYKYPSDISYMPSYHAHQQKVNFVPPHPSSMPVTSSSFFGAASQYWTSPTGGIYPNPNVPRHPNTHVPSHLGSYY

**Q.** For CGAAAGAGGAAGTGCTAAAC, which binding signal is on record?
**A.** The binding signal was 3.98 z-score.

**Q.** ATGGAGAGGAAGTGGCAGAG was tested. Which binding signal did it give?
**A.** The binding signal was 3.13 z-score.

**Q.** TGAGAGAGGAAGTGGCAAGT was tested. Which binding signal did it give?
**A.** Its binding signal is 3.1 z-score.

**Q.** Which binding signal does the source give for AGGAAGGGGAAGTGCTGAGC here?
**A.** Its binding signal is 3.08 z-score.

**Q.** GAAAAGAGGATGTGAACTTT was tested. Which binding signal did it give?
**A.** Its binding signal is 2.07 z-score.

**Q.** With GAAAACAGTAAGTCCCATAG as the sequence, how does the binding signal read?
**A.** Its binding signal is -0.0836 z-score.

**Q.** For TGTAAAAGGAACTGGTGTTC, which binding signal is on record?
**A.** The binding signal was 0.855 z-score.

**Q.** How did the binding signal turn out when AAAAAGAGGAAGTGACTTCA was run?
**A.** Its binding signal is 4.29 z-score.

**Q.** How did the binding signal turn out when TAAAAGGGGAAGTTCAGTCC was run?
**A.** The binding signal was 3.06 z-score.

**Q.** CAATGGAGGAAGTGGAGTTC was tested. Which binding signal did it give?
**A.** The binding signal was 2.48 z-score.

**Q.** With CCACAGAGGAAGTGTGGATA as the sequence, how does the binding signal read?
**A.** Its binding signal is 2.59 z-score.

**Q.** How did the binding signal turn out when TCCATGAGGAAGTGGGCTAA was run?
**A.** Its binding signal is 2.32 z-score.

**Q.** With AGCAAGAGGAAGTCAAGTAC as the sequence, how does the binding signal read?
**A.** The binding signal was 2.59 z-score.

**Q.** Which binding signal does the source give for GATAAGACGAAGTCCTCTGT here?
**A.** The binding signal was 0.0442 z-score.

**Q.** How did the binding signal turn out when AGAAAGAGGAAGTGGAAGAG was run?
**A.** Its binding signal is 4.3 z-score.

**Q.** CGAAAGGTGAAGTGCTAAAC was tested. Which binding signal did it give?
**A.** Its binding signal is 0.421 z-score.

**Q.** Which binding signal does the source give for TGAACGAGGAAGTGCAACCA here?
**A.** Its binding signal is 1.57 z-score.

**Q.** With GTAATGAGGAAGTAAATGCA as the sequence, how does the binding signal read?
**A.** The binding signal was 2.7 z-score.

**Q.** Which binding signal does the source give for CAAGAGAGGAAGTAACAGCA here?
**A.** The binding signal was 2.73 z-score.

**Q.** For ACAAAGAGGAACTGTGCCCC, which binding signal is on record?
**A.** The binding signal was 1.55 z-score.

**Q.** With GGAAAGAGGAACTAGCCTTG as the sequence, how does the binding signal read?
**A.** Its binding signal is 2.84 z-score.

**Q.** Which binding signal does the source give for TAGATGAGGAAGTCGGGAAA here?
**A.** The binding signal was 2.27 z-score.

**Q.** Which binding signal does the source give for GAAAACAGGAAGCCCCATAG here?
**A.** The binding signal was 3.04 z-score.

**Q.** How did the binding signal turn out when AAAAACAGGAAGTCAACAGG was run?
**A.** Its binding signal is 4.84 z-score.

**Q.** Which binding signal does the source give for GATAAGAGGTAGTCCTCTGT here?
**A.** Its binding signal is -0.249 z-score.

**Q.** How did the binding signal turn out when CAAAAAGGGAATTGGATGCT was run?
**A.** Its binding signal is 0.744 z-score.

**Q.** With GAAAAAAGGAAGTGGCAAGC as the sequence, how does the binding signal read?
**A.** Its binding signal is 2.97 z-score.

**Q.** AGGGTGGGGAAGTGAAGCCG was tested. Which binding signal did it give?
**A.** The binding signal was 1.62 z-score.

**Q.** AGATTAAGGAAGTGAGAATC was tested. Which binding signal did it give?
**A.** The binding signal was 2.72 z-score.

**Q.** How did the binding signal turn out when ACAAAAAGGAACTTTGCCCC was run?
**A.** Its binding signal is 0.606 z-score.

**Q.** For TTCATGAGGAAGTGGCTTAG, which binding signal is on record?
**A.** The binding signal was 2.35 z-score.

**Q.** For TGAAATAGGAAGTGCAACCA, which binding signal is on record?
**A.** Its binding signal is 2.25 z-score.

**Q.** How did the binding signal turn out when GAAATTAGGAAGTACTGTGA was run?
**A.** Its binding signal is 1.69 z-score.

**Q.** For AACAGGAGGAAGTGAGATGT, which binding signal is on record?
**A.** Its binding signal is 2.7 z-score.

**Q.** Which binding signal does the source give for ACAATGGAGAAGTGTCTGGG here?
**A.** Its binding signal is -0.581 z-score.

**Q.** How did the binding signal turn out when CAAATGAGGACCTGATGCGG was run?
**A.** Its binding signal is -0.774 z-score.

**Q.** For CAGGAGAGGAACTGACAGGA, which binding signal is on record?
**A.** Its binding signal is 1.03 z-score.

**Q.** TGGCAGGGGAAGTGCTTTGC was tested. Which binding signal did it give?
**A.** Its binding signal is 1.72 z-score.

**Q.** For TGAAGGAGGAAGTGCAACCA, which binding signal is on record?
**A.** The binding signal was 3.01 z-score.

**Q.** Which binding signal does the source give for GCTTTAGGGAAGTGGGGCAG here?
**A.** The binding signal was 1.39 z-score.
